Among all 310,000 compounds or so, about 14,000 (4.5%) showed an effect of 50% or more. The effect is printed as a negative number. The list shows a part of the results.
Biological target: human ether-à-go-go-related gene (hERG) potassium channel (human, UniProt Q12809)
Assay: primary screen, population patch clamp on CHO cells stably expressing hERG
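Also: peak tail current of the secondary pulse compared with the same well before compound.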

human ether-à-go-go-related gene (hERG) potassium channel, sequence (Q12809 whole entry, looked up): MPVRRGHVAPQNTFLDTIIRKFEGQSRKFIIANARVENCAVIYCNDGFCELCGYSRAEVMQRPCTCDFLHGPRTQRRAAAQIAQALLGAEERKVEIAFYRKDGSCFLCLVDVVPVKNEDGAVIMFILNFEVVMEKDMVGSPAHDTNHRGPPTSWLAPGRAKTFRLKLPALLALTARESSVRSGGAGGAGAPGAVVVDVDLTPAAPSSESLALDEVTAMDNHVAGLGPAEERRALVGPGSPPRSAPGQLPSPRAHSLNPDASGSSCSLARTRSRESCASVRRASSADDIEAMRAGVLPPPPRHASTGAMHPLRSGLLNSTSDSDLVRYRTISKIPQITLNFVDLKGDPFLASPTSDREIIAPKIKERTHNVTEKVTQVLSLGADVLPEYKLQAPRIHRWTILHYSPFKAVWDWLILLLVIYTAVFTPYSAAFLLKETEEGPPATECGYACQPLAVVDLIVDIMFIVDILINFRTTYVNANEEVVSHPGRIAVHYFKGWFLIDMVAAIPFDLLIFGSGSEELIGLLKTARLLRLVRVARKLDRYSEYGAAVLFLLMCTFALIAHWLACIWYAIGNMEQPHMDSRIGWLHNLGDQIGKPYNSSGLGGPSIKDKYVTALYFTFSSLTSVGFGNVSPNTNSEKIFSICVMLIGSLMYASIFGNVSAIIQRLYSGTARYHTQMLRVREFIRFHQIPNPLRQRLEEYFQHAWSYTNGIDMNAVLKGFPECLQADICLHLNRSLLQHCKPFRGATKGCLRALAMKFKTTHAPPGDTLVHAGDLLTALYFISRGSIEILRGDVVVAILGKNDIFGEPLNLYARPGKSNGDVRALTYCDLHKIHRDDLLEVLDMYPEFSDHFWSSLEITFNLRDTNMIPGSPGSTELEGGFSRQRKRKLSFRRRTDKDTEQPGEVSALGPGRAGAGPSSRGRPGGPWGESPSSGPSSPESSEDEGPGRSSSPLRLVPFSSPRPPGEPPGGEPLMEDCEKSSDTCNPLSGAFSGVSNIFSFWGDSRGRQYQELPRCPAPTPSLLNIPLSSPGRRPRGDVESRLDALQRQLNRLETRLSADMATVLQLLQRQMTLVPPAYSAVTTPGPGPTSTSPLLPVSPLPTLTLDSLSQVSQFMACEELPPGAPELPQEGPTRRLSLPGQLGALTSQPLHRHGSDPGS

| SMILES | hERG current change (%, negative = inhibition) at 10uM [%] |
| --- | --- |
| Cc1ccccc1OCC(=O)N/N=C/c1sc(=O)n(Cc2cccc(C(=O)O)c2)c1Cl | 7.97 |
| Cc1ccc(C)c(-n2c(CNC(=O)c3ccco3)nnc2SCC(=O)Nc2nnc(C)s2)c1 | 20.4 |
| CS(=O)(=O)N(CC(=O)N1CCCCCC1)c1ccc(Br)cc1 | -3.33 |
| COc1ccc(S(=O)(=O)N2CCC(C(=O)NCCC(=O)Nc3ccc(Cl)cc3)CC2)cc1 | -1.39 |
| O=C(NCc1cccc(Cl)c1)C1CCCO1 (stereo not shown) | 12.9 |
| CCOC(=O)C1CCN(C/C=C/c2ccccc2[N+](=O)[O-])CC1 | -70.2 |
| O=C(NC(=O)c1cccc(F)c1)OC[C@@H]1CCCN2CCCC[C@H]12 | -36.7 |
| O=C(NCCCN1CCN(c2ccc(F)cc2)CC1)NC12CC3CC(CC(C3)C1)C2 | -73.2 |
| CN(C)CCN=Cc1c(O)n(Cc2ccc3c(c2)OCO3)c(=O)c2ccccc12 | -13.8 |
| O=C(Nc1ccccc1N1CCCC1)c1cccnc1 | -0.385 |
| COc1ccc(CCn2c(C)cc(C(=O)CN3C(=O)C(=O)N(Cc4ccco4)C3=O)c2C)cc1 | 1.28 |
| Cc1ccc(C)c(CNC(=O)Nc2ccccc2)c1 | 29.5 |
| CCOC(=O)C1=C(CS(=O)(=O)c2ccc(C)c(C)c2)NC(=O)NC1c1ccc(O)cc1 (stereo not shown) | 7.63 |
| CCOC(=O)CSCC(=O)Nc1cc(C)ccc1C | 0.851 |
| COc1ccc(OC)c(S(=O)(=O)N2CCC3(CC2)OCCN3S(=O)(=O)c2ccccc2)c1 | -12.3 |
| Cc1ccc(C(=O)N2CCN3C(=O)c4ccccc4C23c2ccc(Cl)cc2)cc1 (stereo not shown) | -18.4 |
| Cc1nnc(SCC(=O)N2CCN(C(=O)c3ccco3)CC2)n1C | 4.11 |
| Cc1cc(=O)oc2cc(OCC(=O)Nc3ccc4[nH]c(=O)[nH]c4c3)ccc12 | 22.7 |
| CS(=O)(=O)c1ccc([C@@H](O)[C@@H](CO)NC(=O)C(Cl)Cl)cc1 | 4.8 |
| CCOc1ccc(N(CC(=O)NC2CC3CCC2C3)S(=O)(=O)c2ccccc2)cc1 (stereo not shown) | 29.3 |
| Cc1ccc2nc(N/C(N)=N/S(=O)(=O)c3ccc([N+](=O)[O-])cc3)nc(C)c2c1 | -11.6 |
| O=C(Cn1nc(C(=O)O)c2ccccc2c1=O)NCCC1=CCCCC1 | 5.39 |

| SMILES | hERG current change (%, negative = inhibition) at 10uM [%] |
| --- | --- |
| COc1cccc2c1NC(C(=O)O)C1CC=CC21 (stereo not shown) | -10.5 |
| N=c1c(C(=O)NC2CCCC2)cc2c(=O)n3ccccc3nc2n1CC1CCCO1 (stereo not shown) | -83.7 |
| COc1ccc(-n2nc([N+](=O)[O-])c(=NCCC3=CCCCC3)n2O)cc1 | -11.6 |
| COC(=O)CCCC1=CC2=C(c3ccccc3)C(=O)C(C)(OC(=O)C3CCCC3)C(=O)C2=CN1C(CO)CO (stereo not shown) | 11.2 |
| c1cncc(-c2nc(N3CCOCC3)c3ccccc3n2)c1 | -17 |
| COc1ccc(OC)c(C(=O)N2CCC(CCC(=O)NC3CC3)CC2)c1 | 13.1 |
| COc1ccccc1-c1cc(C(F)(F)F)nc(N2CCN(c3ccc(F)cc3)CC2)n1 | 23.7 |
| Cc1ccc(OCCNC(=O)CCNS(=O)(=O)c2ccc3ccccc3c2)cc1 | -3.64 |
| CC1Sc2ccc(S(=O)(=O)CCC(=O)N(C)Cc3ccco3)cc2NC1=O (stereo not shown) | -10.5 |
| Cc1ccc(NC(=O)/C(=C\c2ccccc2)NC(=O)/C=C/c2ccccc2)cc1 | -12.9 |
| CCOc1cc(N2CCOCC2)c(OCC)cc1NC(=O)c1ccc(S(=O)(=O)N(C)C)cc1 | 8.66 |
| O=c1[nH]c(=S)[nH]nc1Cc1ccc(Cl)c(Cl)c1 | 25.6 |
| CCn1cc(C(=O)Nn2cnnc2)c(=O)c2ccc(C)nc21 | 7.9 |
| O=[N+]([O-])c1ccccc1NCc1ccccc1Cl | -4.13 |
| O=C(NC(=S)Nc1cccc2c(O)cccc12)c1cccc(Br)c1 | -2.96 |
| O=C(COc1ccccc1)N1CCN(S(=O)(=O)c2ccc(Br)cc2)CC1 | -17 |
| CC(C(=O)N1CCCC1)c1ccc([N+](=O)[O-])cc1 (stereo not shown) | -0.0422 |
| COc1ccc(N(C(=O)CNC(=O)c2ccco2)C(C(=O)NCC2CCCO2)c2ccccc2)c(OC)c1 (stereo not shown) | 6.48 |
| O=C(Cn1cnc2ccccc21)N/N=C/c1ccccc1 | -1.25 |
| COc1ccc2nc(NCc3ccccc3)[nH]c2c1 | -25.4 |
| CCCCN(CC)CCNC(=O)c1nn(-c2ccc(OC)cc2)c(=O)c2c1c1ccccc1n2C | 0.748 |
| COc1ccc(Cn2c(=O)c3[nH]cnc3n(-c3ccc(C)cc3)c2=O)cc1 | -8.31 |

| SMILES | hERG current change (%, negative = inhibition) at 10uM [%] |
| --- | --- |
| CN(C)c1ccc(N=Nc2ccccc2C(=O)OCC(=O)N(C)c2ccccc2)cc1 | 6.76 |
| CCN(CC)C(=O)c1ccc(-c2nnc(Nc3cccc(O)c3)c3ccccc23)cc1 | -33.2 |
| Cc1onc(-c2c(Cl)cccc2Cl)c1C(O)c1ccccc1 (stereo not shown) | -3.04 |
| Cc1nnc(SCC2=C(C(=O)O)N3C(=O)C(NC(=O)Cn4cnnn4)C3SC2)s1 (stereo not shown) | 8.27 |
| Cc1ccc(-n2ccnc(SCC(=O)NC3CCCC3)c2=O)cc1Cl | 14.3 |
| CC(=O)NC(=S)Nc1ccc(S(=O)(=O)N(C)Cc2ccccc2)cc1 | 13.5 |
| O=C(Cc1ccccc1)NCc1nc2ccccc2[nH]1 | -6.31 |
| CCOC(=O)CNC(=O)Cn1cnc2c(nnn2-c2ccc(F)cc2)c1=O | -16.6 |
| CC(=O)c1cccc(NC(=O)N2CCCC2C(=O)NCc2ccc(F)cc2)c1 (stereo not shown) | -17.2 |
| CC1CCCN(S(=O)(=O)c2ccc(NC(=O)[C@@H]3CCCN3C(=O)c3cccs3)cc2)C1 (stereo partly shown) | -14.7 |
| O=C1/C(=C/c2ccc3c(c2)OCO3)CCC/C1=C\c1ccc2c(c1)OCO2 | 2.71 |
| Cc1ccc(Cl)cc1N1CCN(C(=O)CN(c2ccccc2)S(=O)(=O)N(C)C)CC1 | 9.76 |
| Cc1snnc1C(=O)NC(=S)Nc1ccccc1 | 6.58 |
| Cc1ccccc1NC(=O)Cc1c(O)c2ccccc2[nH]c1=O | 1.76 |
| CC(OC(=O)c1cccc(S(=O)(=O)N2CCCCC2)c1)C(=O)NC1CCCCC1C (stereo not shown) | -36 |
| CC(C)(C)c1ccc(C(=O)OCC(=O)NCc2ccco2)cc1 | -10.9 |
| CC(=O)c1c(C)[nH]c(C(=O)COC(=O)C2CC2)c1C | 2.2 |
| OC1(c2ccc(F)cc2)CC2CCC(C1)N2Cc1nnnn1C1CCCCC1 (stereo not shown) | -25 |
| CC(=O)c1cc(-c2ccccc2)n(CC(=O)N2CCCCC2)c1C | 0.448 |
| Br.O=C(CN1CCSC1=NCc1ccccc1)c1ccc(Cl)c(Cl)c1 | -17.7 |
| COc1ccc2nc(NC(=O)C3CCN(S(=O)(=O)c4cccs4)CC3)sc2c1 | -13.6 |
| O=C(Nc1nnc(COc2ccccc2)s1)Nc1ccccc1F | 30.9 |

| SMILES | hERG current change (%, negative = inhibition) at 10uM [%] |
| --- | --- |
| Oc1ccc(Cl)cc1CNc1cnc2ccccc2c1 | 16.9 |
| COc1ccc(OC)c(S(=O)(=O)n2cnc3cc(C)c(C)cc32)c1 | 4.08 |
| Cc1cc(C)n2nc(C(=O)N/N=C/c3ccco3)nc2n1 | 12.3 |
| O=C(/C=C/c1ccc(Cl)cc1)N1CCN(c2ccccn2)CC1 | -32.3 |
| CCCn1c(CN2CCN(C)CC2)nc2ccccc21 | -9.68 |
| O=[N+]([O-])c1ccc(Oc2cccc3cccnc23)c([N+](=O)[O-])c1 | -52 |
| CC(C(=O)N1CCN(c2ccc(Cl)cc2)CC1)c1ncc(C(F)(F)F)cc1Cl (stereo not shown) | -48.3 |
| CCCCCCOc1ccc(C(CC(=O)O)C(N)=O)cc1 (stereo not shown) | -7 |
| CC1(C)Cc2c(cnn2-c2ccccc2)C(NC(=O)c2ccoc2)C1 (stereo not shown) | -93.4 |
| CC(=O)c1ccc(NC(=O)COC(=O)c2ccccc2N=Nc2ccc(N(C)C)cc2)cc1 | 4.13 |
| COc1cccc(CN2CC(O)=C(c3nc(-c4ccc(Cl)cc4)cs3)C2=N)c1 | -1.11 |
| Nc1ccccc1C(=O)NCCN1CCNC1=O | 19.9 |
| COc1ccccc1N1CCN(C2CCCN(S(=O)(=O)c3cccc(Cl)c3)C2)CC1 (stereo not shown) | -40.2 |
| O=C(c1ccsc1)N1CCCC(N2CCOCC2)C1 (stereo not shown) | 15.7 |
| COc1ccc(C)cc1N(C(=O)c1ccccc1)c1nc2ccccc2s1 | 2.93 |
| CCOc1ccc(C(=O)Oc2cc(C)[nH]c(=O)c2[N+](=O)[O-])cc1OCC | 22.6 |
| Cc1cc(C)cc(NC(=O)Cn2nnc(C(=O)NCc3ccc4c(c3)OCO4)c2N)c1 | 15.7 |
| O=C(Cn1c(=O)oc2cc(S(=O)(=O)N3CCCCCC3)ccc21)NC1CCCCCCC1 | -1.06 |
| Cc1cc(N2CCC(C(=O)N3CCN(c4cccc(C)c4C)CC3)CC2)n2ncnc2n1 | -68.7 |

From PMC4336329 (PLoS ONE, 2015)
